In PMC4336329 (PLoS ONE, 2015):
Hit rate of the full screen: of about 310,000 compounds, about 14,000 (4.5%) showed an effect of 50% or more. The effect is printed as a negative number. Some of the results follow.

Molecular target: human ether-à-go-go-related gene (hERG) potassium channel (human, UniProt Q12809)
Experiment: primary screen, population patch clamp on CHO cells stably expressing hERG
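Also: peak tail current of the secondary pulse compared with the same well before compound.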

human ether-à-go-go-related gene (hERG) potassium channel, sequence (Q12809 whole entry, looked up): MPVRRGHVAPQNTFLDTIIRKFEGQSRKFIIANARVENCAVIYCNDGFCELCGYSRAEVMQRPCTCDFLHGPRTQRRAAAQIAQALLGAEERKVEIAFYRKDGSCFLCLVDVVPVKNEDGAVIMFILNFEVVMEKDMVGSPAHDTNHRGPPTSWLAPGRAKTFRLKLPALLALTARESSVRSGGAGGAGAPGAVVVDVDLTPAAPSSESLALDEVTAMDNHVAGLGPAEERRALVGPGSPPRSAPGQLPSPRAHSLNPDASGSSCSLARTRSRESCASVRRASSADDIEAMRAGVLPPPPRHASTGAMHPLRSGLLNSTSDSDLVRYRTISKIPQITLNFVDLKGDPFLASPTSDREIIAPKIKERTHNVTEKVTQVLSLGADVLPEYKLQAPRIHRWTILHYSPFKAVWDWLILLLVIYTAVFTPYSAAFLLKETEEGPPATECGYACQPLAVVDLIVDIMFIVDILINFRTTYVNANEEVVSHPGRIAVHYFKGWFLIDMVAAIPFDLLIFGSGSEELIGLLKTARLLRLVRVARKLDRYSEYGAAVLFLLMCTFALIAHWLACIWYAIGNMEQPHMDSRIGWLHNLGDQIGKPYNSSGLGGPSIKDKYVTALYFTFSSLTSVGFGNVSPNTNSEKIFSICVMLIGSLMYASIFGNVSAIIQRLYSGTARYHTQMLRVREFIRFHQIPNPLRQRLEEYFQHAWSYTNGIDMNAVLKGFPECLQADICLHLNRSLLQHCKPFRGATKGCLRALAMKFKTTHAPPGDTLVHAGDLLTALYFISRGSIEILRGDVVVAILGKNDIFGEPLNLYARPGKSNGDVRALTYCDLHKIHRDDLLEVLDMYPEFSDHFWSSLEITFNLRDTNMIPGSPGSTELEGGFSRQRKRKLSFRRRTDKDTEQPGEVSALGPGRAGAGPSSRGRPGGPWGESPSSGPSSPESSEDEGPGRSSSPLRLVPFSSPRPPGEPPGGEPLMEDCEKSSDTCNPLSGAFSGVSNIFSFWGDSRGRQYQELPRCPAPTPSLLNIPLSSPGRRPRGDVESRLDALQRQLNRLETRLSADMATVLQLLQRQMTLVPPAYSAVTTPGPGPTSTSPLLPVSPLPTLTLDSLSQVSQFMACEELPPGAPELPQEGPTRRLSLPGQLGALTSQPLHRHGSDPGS

Point of comparison: `O=C(NCCCN1CCOCC1)c1sc2cc(F)ccc2c1Cl`, “hERG current change (%, negative = inhibition) at 10uM” value -44%. Against it:
- O=C(NCc1cccnc1)C(=O)NCC1OCCCN1S(=O)(=O)c1ccc(F)cc1 (centres unmarked) — higher, 6.99%
- CCOc1ccc(C2CC(c3ccc(CC)cc3)Nc3nc(N)nn32)cc1 (centres unmarked) — higher, 1.96%
- Fc1cccc(F)c1-n1c(CN2CCCCC2)csc1=S — higher, 4.06%
- CC(C)(C)C(=O)Nc1nnc(-c2ccccc2)c(-c2ccccc2)n1 — higher, -6.96%
- Cn1c(=O)[nH]c2nnc(-c3ccc(Cl)c(Cl)c3)nc2c1=O — higher, 8.52%
- COc1ccccc1CNC(=O)/C=C/C(=O)O — higher, 8.64%
- CCOC(=O)C1(CCCc2ccccc2)CCN(C(=O)CCOC)CC1 — lower, -46.8%
- OC(CN1CCC(Cc2ccccc2)CC1)c1ccccc1 (centres unmarked) — lower, -52.9%
- O=C(C1=C[C@H](c2ccccc2)C[C@H](OCCCCO)O1)N1CCN(Cc2ccccc2)CC1 — higher, -38.9%
- CN(C)C(=O)c1cc([N+](=O)[O-])ccc1O — higher, 22%
- CCCCNC(=S)Nc1ccc(Cl)cc1 — higher, 3.01%
- Cn1c(=O)c2cc(S(=O)(=O)NCCC(=O)Nc3ccccc3F)ccc2n(C)c1=O — higher, 3.05%
- c1ccc(SCc2cc(-c3ccccc3)no2)cc1 — higher, 21%
- C/C(=N\NC(=O)c1nn(C)c(C)c1Br)c1cccc(NC(=O)c2ccc(F)cc2)c1 — higher, -38.5%
- Cc1[nH][nH]c(=O)c1N=Nc1ccccc1 — higher, 9.77%
- Cc1cc([N+](=O)[O-])nn1CCCC(=O)Nc1ccc2c(c1)OCO2 — higher, -5.95%
- CC(C)c1nc(SCC(=O)NCc2ccccc2)n[nH]1 — higher, 2.8%
- CC(C)NC(=O)c1ccc(CNC(=O)OCC(F)(F)F)cc1 — higher, -0.534%
- Cc1cccc(CCN(C(=O)Cc2cccs2)C(C(=O)NC2CCCCC2)c2cccnc2)c1 (centres unmarked) — higher, 3.91%
- CN(CC(=O)Nc1ccccc1Br)C(=O)C1CCN(C(=O)c2ccc(Cl)cc2)CC1 — lower, -50.1%
- CSCC[C@H](NC(=O)OC(C)(C)C)C(=O)N1CCC(C(=O)N[C@@H](C)C(=O)NC(C)c2ccccc2)CC1 (some centres unmarked) — higher, 19.2%
- O=C(O)C1C2C=CC3(CN(C4CCCC4)C(=O)C13)O2 (centres unmarked) — higher, 1.48%
- CC(=O)Nc1cccc(-c2nc3ccc(NC(C)=O)cc3[nH]2)c1 — higher, 7.37%
- CC(C)(C)n1nnnc1CN(Cc1ccco1)Cc1cc2cc3c(cc2[nH]c1=O)OCO3 — higher, 3.98%
- COc1ccc(Cn2cnc3c(NS(C)(=O)=O)c(C)c(C)cc32)cc1 — higher, -4.46%
- Cc1cc(NC(=O)C(C)C)n(-c2nc3ccccc3s2)n1 — higher, 18.5%
- CCc1ccc(-c2cc(C)no2)cc1S(=O)(=O)NCCc1ccccc1 — higher, 2.38%
- COc1ccc(NC(=O)Cn2c(=O)c(C)nc3ccccc32)cc1Cl — higher, -2.07%
- CCc1ccc(Nc2n[n+](-c3ccccc3)c(-c3cccc(Cl)c3Cl)s2)cc1.[Cl-] — higher, -1.43%
- COc1ccccc1CC(=O)O/N=C(\N)c1ccccn1 — higher, 9.18%
- Nc1ccccc1N=Nc1ccccc1N — higher, -2.45%
- Cc1cc(C)c(S(=O)(=O)c2ccccc2C)c(N(C)C)n1 — higher, 4.75%
- CCOc1ccc(NC(=O)CN(C)C(=O)CCNC(=O)c2ccc(Br)cc2)cc1OCC — higher, -34.2%
- CC(=O)Nc1ccc(S(=O)(=O)NCC(=O)OCC(=O)Nc2sccc2C(N)=O)cc1 — higher, 9.15%
- Cc1cc(C)nc(CCNC(=O)c2cc(COc3c(C)cccc3C)on2)n1 — higher, -12.7%
- CCOC(=O)COc1ccc(C2NC(C(=O)O)CS2)cc1 (centres unmarked) — higher, 20.3%
- CC(Oc1ccc(Cl)cc1)c1ccn[nH]1 (centres unmarked) — higher, 20.9%
- CO/N=C(/c1nonc1N)N1CCN(c2ccc([N+](=O)[O-])cc2)CC1 — higher, -11.5%
- CN(Cc1cnn(C)c1)C(=O)c1cc2ccccc2oc1=O — higher, -0.0112%
- CC1CCCCC1NC(=O)COc1ccccc1C#N (centres unmarked) — higher, -1.85%
- CC1=C(C)CC(C(=O)N2CCN(C/C=C/c3ccccc3)CC2)C(C(=O)O)C1 (centres unmarked) — higher, 8.99%
- C=C1C(=O)[C@@]23C[C@H]4[C@@H]5[C@@]6(C)CCC[C@@]57[C@@H]2[C@@H](O)[C@@H]1C[C@H]3[C@H]7N4C6 — higher, 14.7%
- CCCNC(=O)CN(C1CCCCC1)S(C)(=O)=O — higher, 30%
